Test results published in PubChem BioAssay AID889 (National Center for Advancing Translational Sciences (NCATS), 2007).
About 15 (0.02%) of roughly 75,000 compounds were called active. The shares of active, inactive and inconclusive entries below differ from those in the screen. Calls come from the whole dose curve; as a rule, active = well fitted inhibition curve with a large enough effect in the main read-out, with a control signal flat (not every such curve was filed as active); inconclusive = small, poorly fitted or top-dose-only effect, or a change in a side signal; inactive = flat fitted curve, though single readings scatter. A potency beside an inconclusive call is a rough fit, not a confirmed value. A note “side channel” means that the fit belongs to a control or component signal, not to the main read-out.

The compounds below were run against Caspase-7 (Homo sapiens) (UniProt P55210) (assay: qHTS Assay for Allosteric/Competitive Inhibitors of Caspase-7). Conditions: recombinant caspase-7, Ac-DEVD-AFC fluorescence rate; activity change, negative = inhibition: at 57.5 µM (top of the series) unless noted.
Potency is the fitted concentration of half-maximal effect; tags give direction and shape of the fitted curve or compound fluorescence and quenching.
Throughout, for activity change, negative = inhibition: % of control where 0% means no effect.

Sequence of UniProt P55210 (P55210 whole entry, looked up): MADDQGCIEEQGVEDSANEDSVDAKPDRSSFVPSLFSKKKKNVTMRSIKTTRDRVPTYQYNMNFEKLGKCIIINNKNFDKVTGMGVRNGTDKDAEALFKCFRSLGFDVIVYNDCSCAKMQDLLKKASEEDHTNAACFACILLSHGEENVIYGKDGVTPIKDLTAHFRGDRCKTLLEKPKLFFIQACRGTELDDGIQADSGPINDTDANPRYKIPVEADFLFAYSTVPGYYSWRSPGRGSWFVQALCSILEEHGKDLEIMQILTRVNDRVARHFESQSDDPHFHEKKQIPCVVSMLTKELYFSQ

Q: For `Cc1ccc(CN2C(=O)C(C)(C)Oc3ccc(C(=O)N4CCCCC4)cc32)cc1`, which “activity change, negative = inhibition” value is on record?
A: inactive: 1.77%

Q: `CCN1C(=O)/C(=C/N(C)c2ccccc2)OC1=S` was tested. Which “activity change, negative = inhibition” value did it give?
A: inactive: -0.635%

Q: With `CC(C)(C)N1C(=O)[C@H]2[C@H]3[C@H](O)[C@H](O)C/C(=N/NC(=O)OCc4ccccc4)[C@H]3CC[C@@H]2C1=O` as the compound, how does the activity change, negative = inhibition read?
A: inactive: -1.84% [at 11.5 µM]

Q: With `COc1cc2c(cc1OC)-c1cc3nc4ccccc4nc3n1C(C)(C)C2` as the compound, how does the Potency read?
A: inconclusive: 25.1 µM [fluorescent, side channel, partial curve]

Q: Which activity change, negative = inhibition does the source give for `COC(=O)NC(CC(C)=O)c1ccccc1` (configuration not stated) here?
A: inactive: 0.425% [at 11.5 µM]

Q: Which “activity change, negative = inhibition” value does the source give for `FC(F)(F)c1cccc(Cl)c1` here?
A: inactive: 3.1%

Q: `Cc1ccsc1-c1nc(CSCC(=O)NCc2ccc3c(c2)OCO3)c(C)o1` was tested. Which “activity change, negative = inhibition” value did it give?
A: inactive: -5.24%

Q: With `Cc1sc2ncnc(SCC(=O)NC(=O)NCc3ccco3)c2c1C` as the compound, how does the “activity change, negative = inhibition” value read?
A: inactive: -25.7%

Q: With `Cc1[nH]c2ccccc2c1Cc1nnc(SCC(=O)NCc2ccco2)o1` as the compound, how does the Potency read?
A: inconclusive: 20 µM [fluorescent, partial curve]

Q: How did the “activity change, negative = inhibition” value turn out when `COc1ccc(-c2nc(C#N)c(NCc3ccc(C)cc3)o2)cc1OC` was run?
A: inactive: -2.76%

Q: Which “activity change, negative = inhibition” value does the source give for `O=C(Nc1ccc(OC(=O)c2cccs2)cc1)c1ccco1` here?
A: inactive: -1.33%

Q: With `CCc1ccc2oc(-c3cc(N)cc(C)c3O)nc2c1` as the compound, how does the “activity change, negative = inhibition” value read?
A: inactive: -15.6%

Q: How did the Potency turn out when `Cc1nc2nc(-c3ccccc3)cn2nc1C` was run?
A: inconclusive: 5.01 µM [fluorescent, side channel, partial curve]

Q: `CN(C)c1ncc2nc(-c3cccs3)c(=O)n(C3CC3)c2n1` was tested. Which Potency did it give?
A: inconclusive: 2 µM [fluorescent, side channel, full curve]

Q: With `CCOC(=O)c1c(C)c(C(=O)Nc2ccc(N(C)C)cc2)c(C)n1CC` as the compound, how does the “activity change, negative = inhibition” value read?
A: inactive: -2.43%

Q: `CCOc1ccc(N2C(=O)CC(/C=C3/N(C)c4ccccc4C3(C)C)C2=O)cc1` (configuration not stated) was tested. Which “activity change, negative = inhibition” value did it give?
A: inactive: -4.86%

Q: How did the Potency turn out when `O=c1c(-c2ccc(Cl)cc2)nc2cnc(N3CCOCC3)nc2n1Cc1ccc(F)cc1` was run?
A: inconclusive: 3.16 µM [fluorescent, side channel, partial curve]

Q: Which Potency does the source give for `O=C(Nc1ccc2nc(-c3ccco3)c(-c3ccco3)nc2c1)N1CCCCCC1` here?
A: inconclusive: 31.6 µM [fluorescent, side channel, single point]

Q: `CCCn1c(C)nc2c(NCCCN(CCO)CCO)nc(C)nc21` was tested. Which “activity change, negative = inhibition” value did it give?
A: inactive: 1.56%

Q: Which “activity change, negative = inhibition” value does the source give for `O=C(NCCO)c1ccc(Cc2nc3ccccc3[nH]2)cc1` here?
A: inactive: -1.39%

Q: With `COc1ccc(Oc2ncc3nc(-c4ccc(F)cc4)c(=O)n(CCC#N)c3n2)cc1` as the compound, how does the Potency read?
A: inconclusive: 31.6 µM [inhibitor, single point]

Q: Which “activity change, negative = inhibition” value does the source give for `N[C@H](Cc1cc(I)c(Oc2ccc(O)c(I)c2)c(I)c1)C(=O)O` here?
A: inactive: -0.387% [at 25.7 µM]

Q: Which Potency does the source give for `CC(C)c1cccc2nc3c(c([Si](C)(C)C(C)(C)C)c12)Cn1c-3cccc1=O` here?
A: inconclusive: 25.1 µM [fluorescent, partial curve]

Q: `CCOC(=O)c1cc2c(=O)n3ccccc3nc2n(CC(C)C)c1=NC(=O)c1ccco1` was tested. Which Potency did it give?
A: inconclusive: 12.6 µM [fluorescent, side channel, partial curve]

Q: Which Potency does the source give for `O=c1c(-c2ccccc2)nc2cnc(N3CCOCC3)nc2n1Cc1ccc(F)cc1` here?
A: inconclusive: 2.51 µM [fluorescent, full curve]

Q: With `Cc1cc(N)c(NC2=CC(=O)CC(C)(C)C2)cc1C` as the compound, how does the Potency read?
A: inconclusive: 31.6 µM [fluorescent, partial curve]

Q: For `CCNc1ncc2nc(-c3ccc(OC)cc3)c(=O)n(Cc3cccc(OC)c3)c2n1`, which Potency is on record?
A: inconclusive: 2.51 µM [fluorescent, full curve]

Q: For `c1csc(CNc2ncncc2-c2ccc3c(c2)OCO3)c1`, which “activity change, negative = inhibition” value is on record?
A: inactive: -0.629%

Q: How did the Potency turn out when `COCCn1c(=O)c(-c2ccccc2)nc2cnc(Oc3ccc(OC)cc3)nc21` was run?
A: inconclusive: 39.8 µM [inhibitor, single point]

Q: `Nc1c(N2CCCC2)cc(Cl)c2nonc12` was tested. Which Potency did it give?
A: inconclusive: 31.6 µM [inhibitor, single point]

Q: How did the “activity change, negative = inhibition” value turn out when `CCCC(=O)Nc1cccc(NC(=O)c2ccc3c(c2)OCCO3)c1` was run?
A: inactive: 0.193%

Q: Which “activity change, negative = inhibition” value does the source give for `CCN(Cc1ccccc1)C(c1cc2cc(C)cc(C)c2[nH]c1=O)c1nnnn1CCOC` (configuration not stated) here?
A: inactive: 1.09%

Q: Which Potency does the source give for `CCCn1c(C)nc2c(c1=O)c1nc3ccccc3nc1n2CCC1=CCCCC1` here?
A: inconclusive: 20 µM [inhibitor, single point]

Q: With `COc1ccc(-c2nc3cnc(OC)nc3n(-c3ccc(OC)cc3)c2=O)cc1` as the compound, how does the Potency read?
A: inconclusive: 31.6 µM [fluorescent, side channel, single point]

Q: Which Potency does the source give for `COC(=O)C(C)N(C#N)c1nc(C)nc(C)n1` (configuration not stated) here?
A: inconclusive: 31.6 µM [inhibitor, single point]

Q: For `Cc1nc2cccc([N+](=O)[O-])c2n1CCCN(C)C`, which activity change, negative = inhibition is on record?
A: inactive: 0.657% [at 11.5 µM]

Q: With `COCCn1c(=O)c(-c2ccc(F)cc2)nc2cnc(N(C)C)nc21` as the compound, how does the Potency read?
A: inconclusive: 2 µM [fluorescent, side channel, full curve]

Q: For `COc1ccc(-c2cc(C(F)F)n3ncc(C(=O)NCCCN4CCCC4=O)c3n2)cc1`, which Potency is on record?
A: inconclusive: 6.31 µM [fluorescent, partial curve]

Q: With `CCOC(=O)c1sc2nc(-c3ccco3)c3c(c2c1N)CC(C)(C)OC3` as the compound, how does the Potency read?
A: inconclusive: 31.6 µM [fluorescent, single point]

Q: Which “activity change, negative = inhibition” value does the source give for `O=C(Nc1ccc(Cl)cc1)N1CCN(c2ccc3nnc(-c4ccc(F)cc4)n3n2)CC1` here?
A: inactive: -4.66%

Q: Which Potency does the source give for `O=C1c2ccccc2-c2n[nH]c3cccc1c23` here?
A: inconclusive: 3.16 µM [fluorescent, side channel, full curve]

Q: How did the “activity change, negative = inhibition” value turn out when `Cc1cccc2sc(NC(=O)C3CCCO3)nc12` (configuration not stated) was run?
A: inactive: -1.54%

Q: `c1ccc(-c2ccc(-c3ccc(C4=NCCN4)cc3)o2)cc1` was tested. Which Potency did it give?
A: inconclusive: 3.98 µM [fluorescent, partial curve]

Q: For `CCn1c(N2CCN(CC(=O)c3c[nH]c4ccccc34)CC2)nc2c1c(=O)[nH]c(=O)n2C`, which “activity change, negative = inhibition” value is on record?
A: inactive: -0.705%

Q: For `COc1ccc(C(=O)NCC(=O)NC2=NCCS2)cc1`, which “activity change, negative = inhibition” value is on record?
A: inactive: -2.8%

Q: How did the Potency turn out when `NC(=O)c1cc2ccc(O)cc2oc1=Nc1ccccc1` was run?
A: inconclusive: 15.8 µM [fluorescent, side channel, partial curve]

Q: How did the “activity change, negative = inhibition” value turn out when `O=C(CCc1nc2ccccc2[nH]1)NCc1ccc2c(c1)OCO2` was run?
A: inactive: -4%

Q: For `c1csc(-c2cnc3ccccc3n2)c1`, which Potency is on record?
A: inconclusive: 25.1 µM [inhibitor, single point]

Q: For `COc1ccc(-c2nc3cnc(N4CCNCC4)nc3n(Cc3cccs3)c2=O)cc1`, which Potency is on record?
A: inconclusive: 12.6 µM [fluorescent, side channel, partial curve]

Q: `Cc1cc(N2CCOCC2)nc2ccc(NC(=O)CCC(=O)N3CCCC(C)C3)cc12` (configuration not stated) was tested. Which “activity change, negative = inhibition” value did it give?
A: inactive: -3.73%

Q: How did the activity change, negative = inhibition turn out when `C/C=C/OC(=O)NC(c1cccc(C)c1)[C@@]1(C(=O)OCC)CCCC1=O` (some centres not stated) was run?
A: inactive: 0.929% [at 11.5 µM]

Q: How did the Potency turn out when `Cc1cc(NCc2ccco2)n2c(nc3ccccc32)c1C#N` was run?
A: inconclusive: 15.8 µM [fluorescent, partial curve]

Q: How did the “activity change, negative = inhibition” value turn out when `CCOC(=O)CNc1ccc2c(c1)OCO2` was run?
A: inactive: -4.85%

Q: With `C=CCC1C=CC(Oc2ccc(OC)cc2)C(COC(=O)c2ccc(Br)cc2)O1` (configuration not stated) as the compound, how does the activity change, negative = inhibition read?
A: inactive: -1.27% [at 11.5 µM]

Q: Which Potency does the source give for `CCC(=O)Nc1nn(C)c2nc3c(C)cccc3cc12` here?
A: inconclusive: 12.6 µM [fluorescent, partial curve]

Q: `C[C@@](Cc1ccccc1)(NC(=O)CN)c1ccccc1` was tested. Which “activity change, negative = inhibition” value did it give?
A: inactive: -0.0003%

Q: `COc1ccc(-n2c(=O)c(-c3cccs3)nc3cnc(Nc4cccc(OC)c4)nc32)cc1` was tested. Which Potency did it give?
A: inconclusive: 15.8 µM [fluorescent, side channel, partial curve]

Q: With `COCCn1c(=O)c(-c2ccc(Cl)cc2)nc2cnc(N3CCNCC3)nc21` as the compound, how does the Potency read?
A: inconclusive: 7.94 µM [fluorescent, side channel, partial curve]

Q: With `Cc1c(OC(=O)CNC(=O)OC(C)(C)C)ccc2c3c(c(=O)oc12)CCC3` as the compound, how does the Potency read?
A: inconclusive: 15.8 µM [fluorescent, partial curve]

Q: How did the Potency turn out when `Nc1c(C(=O)NCCN2CCOCC2)c2nc3ccccc3nc2n1CCc1ccccc1` was run?
A: inconclusive: 15.8 µM [fluorescent, side channel, partial curve]

Q: Which activity change, negative = inhibition does the source give for `COc1cccc([C@@H]2Oc3ccc(OC)cc3/C(=N/O[C@@H](C)c3cn([C@H]4COC[C@H]4O)nn3)[C@@H]2O)c1` here?
A: inactive: -0.531% [at 11.5 µM]

Q: Which “activity change, negative = inhibition” value does the source give for `CN1CCN(c2ncncc2-c2ccoc2)CC1` here?
A: inactive: -18.2%

Q: With `Cn1cc(-c2nc3cnc(Oc4ccccc4)nc3n(Cc3cccs3)c2=O)c2ccccc21` as the compound, how does the Potency read?
A: inconclusive: 1.26 µM [inhibitor, partial curve]

Q: Which “activity change, negative = inhibition” value does the source give for `Cc1cccn2c(=O)c(/C=N/O)c(N3CCCCC3)nc12` here?
A: inactive: 0.315%

Q: `Cc1cc(C)c2c(SCc3ccc(Cl)cc3Cl)nc(N)nc2n1` was tested. Which activity change, negative = inhibition did it give?
A: inactive: -3.5% [at 11.5 µM]

Q: With `Nc1nc2c(c(=O)[nH]1)N=C(CNc1ccc(C(=O)NC(CCC(=O)O)C(=O)O)cc1)CN2` (configuration not stated) as the compound, how does the Potency read?
A: inconclusive: 39.8 µM [inhibitor, partial curve]

Q: `CN(C)CCSc1nc(N)c2c3c(sc2n1)COC(C)(C)C3` was tested. Which Potency did it give?
A: inconclusive: 15.8 µM [fluorescent, partial curve]

Q: How did the Potency turn out when `NC(=O)c1cc(-c2ccccc2)nc(N2CCCCCC2)n1` was run?
A: inconclusive: 31.6 µM [fluorescent, single point]

Q: `COc1ccc(-c2nc3cnc(OC)nc3n(CCc3ccccc3)c2=O)cc1` was tested. Which Potency did it give?
A: inconclusive: 3.98 µM [fluorescent, full curve]

Q: `O=C(NCc1ccccn1)c1ccc2nc(-c3ccco3)c(-c3ccco3)nc2c1` was tested. Which Potency did it give?
A: active: 25.1 µM

Q: How did the “activity change, negative = inhibition” value turn out when `CCOC(=O)c1c(C)[nH]c2cc(Br)c(O)cc12` was run?
A: inactive: -0.173%

Q: Which Potency does the source give for `CCNc1ncc2nc(-c3cc(F)cc(F)c3)c(=O)n(CCOC)c2n1` here?
A: inconclusive: 2.51 µM [fluorescent, side channel, full curve]
